Reference: paper PMC5892938
The list shows a part of the results. The exact form of the protein is not confirmed.

Each sequence was assayed against GST-SBP-ILF3 (Homo sapiens) (UniProt Q12906) (assay: targeted RNA Bind-n-Seq). Settings: RBNS binding buffer: 25 mM Tris pH 7.5, 150 mM KCl, 3 mM MgCl2, 0.1% Tween, 0.5 mg/mL BSA, 1 mM DTT; 27 nM protein, 750 pM RNA pool; temperature not stated; high values mean tight binding; sequences stand for … in GGGUAAAAGCGAGGUGAA…CGGGACAAGUAUUAUGGG.
For “GUGUGUGGUGUUGGCUCCUAACACCGCAUA [gtspaired]”, the binding signal (log2 fold change) was -0.233.
In the case of “UUUUUUUUUUGAGACUGAGGCAGUCUCCAG [tttttgagapaired]”, the binding signal (log2 fold change) is reported as 0.351.
“UUUUUUUUUUGAGACCGAUUCGGUCUCCGG [tttttgagapaired]” gave a binding signal (log2 fold change) of 0.243.
Sequence “GUGUGUUGUGUUGGUGUCUAACACAACGCG [gtspaired]” has a binding signal (log2 fold change) of -0.986.
“UUUUUUUUUUGAGACGGCUCCCGUCUCCAG [tttttgagapaired]” gave a binding signal (log2 fold change) of 0.894.
With “UUUUUUUUUUGAGAGGGAUACCCUCUUCUG [tttttgagapaired]” the binding signal (log2 fold change) was 0.375.
For “GUGUGGUGUGUUGGUCUCUAACACACUACA [gtspaired]”, the binding signal (log2 fold change) was -0.543.
In the case of “UUUUUUUUUUGAGAGGGAGCCCCUUUCCAG [tttttgagapaired]”, the binding signal (log2 fold change) is reported as 0.303.
Work on “GUGGUUGGUGUUGGCUCCUAACACCGACCG [gtspaired]” yielded a binding signal (log2 fold change) of -0.862.
“UUUUUUUUUUGAGAGCGAGUCGUUCUCCUG [tttttgagapaired]” gave a binding signal (log2 fold change) of 0.393.
In the case of “UUCUCUCUUCCUCCAGCGGAGGAGGGGAGA [ctspaired]”, the binding signal (log2 fold change) is reported as -0.363.
“UUUUUUUUUUGAGAGUGGGGCAUUCUCCGG [tttttgagapaired]” was tested, and the binding signal (log2 fold change) was 0.538.
Work on “GUGUGGUGUGUUGGCGUCUAACACAUCGCA [gtspaired]” yielded a binding signal (log2 fold change) of -0.745.
For “GGUGGUGGUGUUGGCCUCUAACACCACUAC [gtspaired]”, the binding signal (log2 fold change) was -0.355.
With “UUUUUUUUUUGAGAGCGUAGCGUUCUUCUG [tttttgagapaired]” the binding signal (log2 fold change) was 0.491.
With “UUUUUUUUUUGAGAACGGUACGUUCUCCAG [tttttgagapaired]” the binding signal (log2 fold change) was 0.116.
Work on “UUCUCUUCUCCUCCGAGGGAGGGGAAGGGA [ctspaired]” yielded a binding signal (log2 fold change) of -0.255.
Work on “GGUGUUGGUGUUGGAGUCUAACACCAGCGC [gtspaired]” yielded a binding signal (log2 fold change) of -0.278.
In the case of “UUUUUUUUUUGAGAGCGGAACGUUCUCCGG [tttttgagapaired]”, the binding signal (log2 fold change) is reported as 0.0206.
For “GGUGGUGGUGUUGGUCCCUAACACCGCCGC [gtspaired]”, the binding signal (log2 fold change) was -0.539.
“GGUGGUUGUGUUGGUAUCUAACACAGCUAC [gtspaired]” was tested, and the binding signal (log2 fold change) was -0.735.
For “UUUUUUUUUUGAGAUGGCUACCAUCUUCUG [tttttgagapaired]”, the binding signal (log2 fold change) was 0.509.
“GUGGUGUGUGUUGGCAUCUAACACAUACUA [gtspaired]” was tested, and the binding signal (log2 fold change) was -0.865.
“GUUGUGUGUGUUGGAGUCUAACACACGCAA [gtspaired]” showed a binding signal (log2 fold change) of -0.0577.
“UUUUUUUUUUGAGACUGGAGCAGUCUUCUG [tttttgagapaired]” showed a binding signal (log2 fold change) of 0.833.
Work on “UUUUUUUUUUGAGACUGGUUCAGUCUCCUG [tttttgagapaired]” yielded a binding signal (log2 fold change) of 0.113.
“GUGGUGUGUGUUGGAGCCUAACACAUACCG [gtspaired]” was tested, and the binding signal (log2 fold change) was -0.62.
“UUUUUUUUUUGAGACUGGUCCAGUCUCCUG [tttttgagapaired]” gave a binding signal (log2 fold change) of 0.917.
“UUUUUUUUUUGAGACGGGACCCGUCUCCUG [tttttgagapaired]” showed a binding signal (log2 fold change) of 0.831.
